Molecular target: T1, recombinant human CD229 (extracellular domain) (human, UniProt Q9HBG7 48-454)
T1 construct: extracellular domain; Bought protein; also called recombinant CD229; recombinant extracellular domain of CD229
T1 sequence (looked up): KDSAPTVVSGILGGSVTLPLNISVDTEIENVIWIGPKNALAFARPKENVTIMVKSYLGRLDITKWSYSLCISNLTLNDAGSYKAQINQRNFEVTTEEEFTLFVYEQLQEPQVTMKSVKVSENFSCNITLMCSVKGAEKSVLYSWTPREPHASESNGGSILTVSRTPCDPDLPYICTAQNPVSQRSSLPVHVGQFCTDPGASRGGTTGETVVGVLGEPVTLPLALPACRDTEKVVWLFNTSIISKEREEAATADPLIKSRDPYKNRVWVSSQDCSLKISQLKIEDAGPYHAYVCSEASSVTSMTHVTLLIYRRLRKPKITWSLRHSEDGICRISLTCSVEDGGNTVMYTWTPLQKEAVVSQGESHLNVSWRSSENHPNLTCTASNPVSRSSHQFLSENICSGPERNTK
Experiment: BLI; biotinylated scFv on streptavidin biosensor, recombinant CD229 extracellular domain in solution
Procedure: (FIG. 3A) Schema of construct used for production of biotinylated 2D3 scFv variants including C-terminal AviTag to facilitate in vivo biotinylation. (FIG. 3B) Schema of biolayer interferometry (BLI) setup used for kinetic characterization of CD229 binding. Biotinylated 2D3 variants were immobilized on streptavidin biosensors and the recombinant extracellular domain of CD229 was added in the following concentrations: 2 μM, 1 μM, 0.5 μM, 0.25 μM. (FIG. 3C) Sensorgrams of 2D3 variants were determined using an Octet K2 (Sartorius). Plots show representative result of two independent experiments. (FIG. 3D) Correlation between rate and equilibrium constants of 2D3 variant scFvs as determined by BLI.
Streptavidin (SA) biosensensors (ForteBio) were hydrated in 1× Octet® Kinetics Buffer (Sartorius) for at least 10 minutes. SA biosensors were loaded using the Octet K2 (Sartorius). A baseline in Octet Kinetics Buffer was collected for 1 minute. […] SA biosensors loaded with 2 nm of biotinylated scFv and blocked with biocytin went through a 60-second baseline read in kinetics buffer, 50-second association in 2, 1, 0.5, and 0.25 μM recombinant human CD229 (R&D Systems) in kinetics buffer, and finally 60-second dissociation in kinetics buffer. […] Data was analyzed using Octet® K2 System Data Analysis 9.0 software.

B1: 2D3 scFv (wild type) (scFv)
scFv: QVQLVESGGGLVQPGRSLRLSCAASGFTFDDYAMHWVRQAPGKGLEWVSGISWNSGSIGYADSAKGRFTISRDNSKNTLYLQMNSLRAEDTAVYYCAKRGNSNSFDYWGQGTLVTVSSLEGGGGSGGGGSGGGAS[sequence of about 100 residues omitted]
modifications: BLI form: biotinylated in vivo on a C-terminal AviTag. The tag is not in the letters.
notes: The FLAG-tagged scFv from pSANG10 was used in the TRF assays; The AviTag form from pSANG10-Avi, biotinylated in vivo, was used in BLI; Both forms are kept as one molecule here; also called WT (2D3); parental 2D3; not shown: C-terminal tags of the pSANG10 / pSANG10-Avi constructs (FLAG, the tag used for NiNTA purification, AviTag)
  Kd: 476 nM
